Data: patent publication US5834430A, “Potentiation of antibiotics” (BiosYnth S.r.l., priority 1995, dated 1998)
At least one peptide structure holds a part that was inferred or is arguable (an end, a ring closure or a residue). Residues, ends and D or L forms follow the SMILES beside them.

Experiments:
[1] = test system: Enterob. cloacae 12654; assay: Antibacterial activity of peptide used alone; format: cell-based, Enterobacter cloacae; settings: no antibiotic
[2] = test system: E. coli IH3080; assay: Checkerboard microdilution MIC of antibiotic with peptide; format: cell-based, Escherichia coli; settings: for MIC Rifampin: Experiment I; for MIC Fusidic a.: Experiment II; for MIC Novobiocin: Experiment III; for MIC Erythrom.: Experiment IV
Protocol: (§1) The general assay medium was L broth (pH7.2) which contained 10 g of tryptone (Difco Laboratories, Detroit, Mich.), 5 g of yeast extract (Oxoid Ltd., Hampshire, UK) and 5 g of sodium chloride per liter. After an incubation time of 18 hours at 37° C., the growth of each microtiter well is measured with a Titerteck Multiscan spectrophotometer at 405 nm. Before reading, the spectrophotometer was blanked with corresponding uninoculated drug-containing media. The minimum inhibitory concentration (MIC) of an antibiotic was defined as the lowest concentration of the antibiotic expressed in mg/l which reduced the growth of the target bacteria by ≥90% (MIC90).

[3] = test system: Micrococcus luteus ML36; assay: Antibacterial activity of peptide used alone; format: cell-based; settings: no antibiotic
[4] = test system: Pseud. aeroginosa PAO1; assay: Antibacterial activity of peptide used alone; format: cell-based, Pseudomonas aeruginosa; settings: no antibiotic
[5] = test system: S. typhi SH5014; assay: Checkerboard microdilution MIC of antibiotic with peptide; format: cell-based, Salmonella typhimurium; settings: for MIC Rifampin: Experiment I; for MIC Fusidic a.: Experiment II; for MIC Novobiocin: Experiment III; for MIC Erythromycin.: Experiment IV
Protocol: as §1

[6] = test system: E. coli IH3080; assay: Antibacterial activity of peptide used alone; format: cell-based, Escherichia coli; settings: no antibiotic
[7] = test system: Klebs pneum. 12854; assay: Antibacterial activity of peptide used alone; format: cell-based, Klebsiella pneumoniae; settings: no antibiotic
[8] = test system: Kl. pneumoniae 12854; assay: Checkerboard microdilution MIC of antibiotic with peptide; format: cell-based; settings: for MIC Rifampin: Experiment I; for MIC Fusidic a.: Experiment II; for MIC Novobiocin: Experiment III; for MIC Erythrom.: Experiment IV
Protocol: as §1

[9] = test system: E. cloa 12645; assay: as above; format: cell-based, Enterobacter cloacae; settings: for MIC Rifampin: Experiment I; for MIC Fusidic a.: Experiment II; for MIC Novobiocin: Experiment III; for MIC Erythrom.: Experiment IV
Protocol: as §1

## CC(C)C[C@H](NC(=O)[C@H](Cc1ccccc1)NC(=O)[C@H](CCCNC(=N)N)NC(=O)[C@H](CCCCN)NC(=O)[C@H](CCC(N)=O)NC(=O)[C@H](C)NC(=O)[C@H](CCCCN)NC(=O)[C@H](Cc1c[nH]c2ccccc12)NC(=O)[C@@H](N)CCCCN)C(=O)O [Peptide Seq. ID 26] (H-KWKAQKRFL-OH)
[1]
  antibacterial activity (MIC) of peptide used alone: > 100 µg/mL
[2]; peptide 1 mg/l
  MIC Rifampin: 10 µg/mL
  MIC Fusidic a.: 300 µg/mL
  MIC Novobiocin: 30 µg/mL
  MIC Erythrom.: 30 µg/mL
[2]; peptide 10 mg/l
  MIC Rifampin: 1 µg/mL
  MIC Fusidic a.: 300 µg/mL
  MIC Novobiocin: 10 µg/mL
  MIC Erythrom.: 30 µg/mL
[2]; peptide 100 mg/l
  MIC Rifampin: 0.3 µg/mL
  MIC Fusidic a.: 30 µg/mL
  MIC Novobiocin: 3 µg/mL
  MIC Erythrom.: 10 µg/mL
[3]
  antibacterial activity (MIC) of peptide used alone: > 100 µg/mL
[4]
  antibacterial activity (MIC) of peptide used alone: > 100 µg/mL
[5]; peptide 1 mg/l
  MIC Rifampin: 10 µg/mL
  MIC Fusidic a.: > 300 µg/mL
  MIC Novobiocin: 30 µg/mL
  MIC Erythromycin.: 100 µg/mL
[5]; peptide 10 mg/l
  MIC Rifampin: 3 µg/mL
  MIC Fusidic a.: 100 µg/mL
  MIC Novobiocin: 10 µg/mL
  MIC Erythromycin.: 100 µg/mL
[5]; peptide 100 mg/l
  MIC Rifampin: 0.3 µg/mL
  MIC Fusidic a.: 30 µg/mL
  MIC Novobiocin: 3 µg/mL
  MIC Erythromycin.: 30 µg/mL
[6]
  antibacterial activity (MIC) of peptide used alone: > 100 µg/mL
[7]
  antibacterial activity (MIC) of peptide used alone: > 100 µg/mL
[8]; peptide 1 mg/l
  MIC Rifampin: 10 µg/mL
  MIC Fusidic a.: > 300 µg/mL
  MIC Novobiocin: 30 µg/mL
  MIC Erythrom.: > 100 µg/mL
[8]; peptide 10 mg/l
  MIC Rifampin: 10 µg/mL
  MIC Fusidic a.: 300 µg/mL
  MIC Novobiocin: 30 µg/mL
  MIC Erythrom.: > 100 µg/mL
[8]; peptide 100 mg/l
  MIC Rifampin: 3 µg/mL
  MIC Fusidic a.: 100 µg/mL
  MIC Novobiocin: 10 µg/mL
  MIC Erythrom.: 100 µg/mL
[9]; peptide 1 mg/l
  MIC Rifampin: 10 µg/mL
  MIC Fusidic a.: > 300 µg/mL
  MIC Novobiocin: > 30 µg/mL
  MIC Erythrom.: > 100 µg/mL
[9]; peptide 10 mg/l
  MIC Rifampin: 10 µg/mL
  MIC Fusidic a.: > 300 µg/mL
  MIC Novobiocin: 30 µg/mL
  MIC Erythrom.: > 100 µg/mL
[9]; peptide 100 mg/l
  MIC Rifampin: 1 µg/mL
  MIC Fusidic a.: 100 µg/mL
  MIC Novobiocin: 10 µg/mL
  MIC Erythrom.: 100 µg/mL
